# Inconclusive results, whose numbers are uncertain, are shown with a selection of clear calls. For part of these data: A potency beside an inconclusive call is a rough fit, not a confirmed value. Active and inactive are the calls of the source. Unless noted, calls follow the shape of the dose curve; as a rule, active = well fitted curve in the direction sought with a large enough effect; inconclusive = small, poorly fitted or top-dose-only effect, or another doubt; inactive = no such curve, though single readings can be large; an effect the other way counts as inactive or inconclusive.
# Experiments:
# [1] = Primary qHTS for inhibitors of nuclear receptor binding SET domain protein 2 (NSD2) in an RCH-ACV wild type WT cells (2C) (AID 1645877); conditions: activity change, negative = cell killing: at 44.9 µM (top of the series) unless noted; also: nearly all actives have a fitted effect of over 70% in size; also: potency is read from the fitted curve at half-maximal effect; as to activity change, negative = cell killing: % is scaled to controls: 0 for no effect and ±100 for the full control effect
# [2] = Primary fluorescence-based thiol-reactive (MSTI) qHTS assay for identification of artifact compounds. (AID 1845221); also: potency is read from the fitted curve at half-maximal effect;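 also: thiol-reactive compounds lower the probe fluorescence signal; nearly all actives have a fitted effect of over 65% in size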
# Summary of the method: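 Probe: MSTI 4 uM, PBS pH 7.4, 2% DMSO. Incubation 1 h, RT, light-protected. Readout fluorescence 525/598 nm.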
# [3] = Primary redox qHTS assay for identification of artifact compounds. (AID 1845223); also: potency is read from the fitted curve at half-maximal effect
# Summary of the method: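 Redox-cycling detection via DTT (250 uM final) oxidation coupled to Amplex Red (25 uM)/HRP (250 mU/mL) in HBSS. 15 min preincubation plus 30 min after DTT, room temperature. Ex/Em 525/598 nm; 4-parameter Hill fit against DMSO and 10 uM DA3003.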
# [4] = tested on: HaCat; assay: Cytotoxic Profiling of Annotated Libraries Using Quantitative High-Throughput Screening (AID 1296008); conditions: Five cell lines viability, CellTiter-Glo ATP luminescence, 48-72 h; max response: active compounds read low; also: nearly all actives have a fitted effect of over 60% in size; also: potency is read from the fitted curve at half-maximal effect
# Summary of the method: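 Cells exposed to compounds for 48 or 72 hr at 37 degrees Celsius. Viability read as ATP-coupled luminescence with CellTiter-Glo after 10 min at room temperature.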
# [5] = tested on: PA-1; assay: Primary qHTS to identify gynecologic anti-cancer compounds using libraries of approved drugs and bioactive compounds (AID 1345084); conditions: Gynecologic cancer cell panel viability, ATPlite luminescence, 48 h; series mostly up to 57.5 µM; also: nearly all actives have a fitted effect of over 55% in size; also: potency is read from the fitted curve at half-maximal effect; as to activity change, negative = cytotoxicity: % is scaled to controls: 0 for no effect and ±100 for the full control effect
# Summary of the method: (§1)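 Cell viability after 48 h drug treatment, ATPlite luminescence readout; five doses.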
# [6] = tested on: Tov-21-G; assay: as above; conditions: Gynecologic cancer cell panel viability, ATPlite luminescence, 48 h; series mostly up to 57.5 µM
# Summary of the method: as §1
# [7] = P-glycoprotein substrates identified in KB-8-5-11 adenocarcinoma cell line, qHTS therapeutic library screen (AID 1346987); conditions: activity change, negative = cytotoxicity: at 44.5 µM (top of the series); also: nearly all actives have a fitted effect of over 65% in size; also: potency is read from the fitted curve at half-maximal effect
# Summary of the method: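 In this qHTS, P-gp-rich KB-8-5-11 cells received library compounds across a concentration range. Viability was quantified by luminescence after 72 h at 37 degree C.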
# [8] = tested on: OV90; assay: Primary qHTS to identify gynecologic anti-cancer compounds using libraries of approved drugs and bioactive compounds (AID 1345084); conditions: Gynecologic cancer cell panel viability, ATPlite luminescence, 48 h; series mostly up to 57.5 µM; also: nearly all actives have a fitted effect of over 55% in size; also: potency is read from the fitted curve at half-maximal effect; as to activity change, negative = cytotoxicity: % is scaled to controls: 0 for no effect and ±100 for the full control effect
# Summary of the method: as §1
# [9] = target: Cytochrome P450 2C9 (Homo sapiens) (UniProt P11712); assay: Cytochrome P450 family 2 subfamily C member 9 (CYP2C9) small molecule antagonists: luciferase biochemical (cell-free) qHTS assay (AID 1645842; active = well fitted curve in the direction sought with a large enough effect in the repeat runs; inconclusive = weak or mixed curves; inactive = no such curve, though single readings can be large; an effect the other way counts as inactive or inconclusive)
# UniProt P11712, sequence (P11712 whole entry, looked up): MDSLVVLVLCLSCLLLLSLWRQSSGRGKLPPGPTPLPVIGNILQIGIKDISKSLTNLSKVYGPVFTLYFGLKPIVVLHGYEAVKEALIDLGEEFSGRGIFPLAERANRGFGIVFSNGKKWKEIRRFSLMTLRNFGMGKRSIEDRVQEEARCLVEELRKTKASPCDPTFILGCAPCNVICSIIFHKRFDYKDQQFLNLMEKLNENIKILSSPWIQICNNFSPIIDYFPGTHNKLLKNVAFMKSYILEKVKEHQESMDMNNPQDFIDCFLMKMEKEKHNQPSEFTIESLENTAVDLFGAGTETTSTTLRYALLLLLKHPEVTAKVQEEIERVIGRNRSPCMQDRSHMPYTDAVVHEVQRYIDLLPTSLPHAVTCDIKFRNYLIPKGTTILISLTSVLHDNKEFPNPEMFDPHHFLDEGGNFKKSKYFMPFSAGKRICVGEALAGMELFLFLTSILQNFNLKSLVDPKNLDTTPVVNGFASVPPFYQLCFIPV
# Summary of the method: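 P450-Glo CYP2C9 system: proluciferin substrate with enzyme in mix containing 0.4% BSA, 10 min at room temperature, then NADPH regeneration solution added and incubated 1 h at 37C. Detection reagent stopped reaction; luminescence read after 20 min as RLU.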
# [10] = tested on: JEG-3; assay: Primary qHTS to identify gynecologic anti-cancer compounds using libraries of approved drugs and bioactive compounds (AID 1345084); conditions: Gynecologic cancer cell panel viability, ATPlite luminescence, 48 h; series mostly up to 57.5 µM; also: nearly all actives have a fitted effect of over 55% in size; also: potency is read from the fitted curve at half-maximal effect; as to activity change, negative = cytotoxicity: % is scaled to controls: 0 for no effect and ±100 for the full control effect
# Summary of the method: as §1
# [11] = tested on: SKOV3; assay: as above; conditions: Gynecologic cancer cell panel viability, ATPlite luminescence, 48 h; series mostly up to 57.5 µM
# Summary of the method: as §1
# [12] = qHTS to identify inhibitors of the type 1 interferon - major histocompatibility complex class I in skeletal muscle: primary screen against the NCATS Mechanism Interrogation Plate v5.0 (MIPE) Libary (AID 1347411); conditions: iHSKM cells + IFN-b, HiBiT-tagged MHC-I luminescence, 24 h; activity change, negative = inhibition: at 45.8 µM (top of the series) unless noted;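 also: plate controls were vehicle for no effect and reference inhibitor for full effect; nearly all actives have a fitted effect of over 65% in size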
# Summary of the method: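 HLA-B HiBit myoblasts, dexamethasone-free medium + 4 ng/ml IFN-b, 24 h compound, 11-pt 1:3 from 46 uM final. Readout: Nano-Glo HiBiT lytic luminescence after 10 min lysis, RT.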
# [13] = Primary qHTS for inhibitors of nuclear receptor binding SET domain protein 2 (NSD2) in an isogenic RCH-ACV NSD2 p.E1099K mutant (9B) (AID 1645876); conditions: activity change, negative = viability loss: at 44.9 µM (top of the series) unless noted; also: nearly all actives have a fitted effect of over 70% in size; also: potency is read from the fitted curve at half-maximal effect
# [14] = tested on: Tov112D; assay: Primary qHTS to identify gynecologic anti-cancer compounds using libraries of approved drugs and bioactive compounds (AID 1345084); conditions: Gynecologic cancer cell panel viability, ATPlite luminescence, 48 h; series mostly up to 57.5 µM; also: nearly all actives have a fitted effect of over 55% in size; also: potency is read from the fitted curve at half-maximal effect
# Summary of the method: as §1
# [15] = target: Glutathione peroxidase 1 (Homo sapiens) (UniProt P07203); assay: Primary qHTS Assay for Inhibitors of Recombinant Selenoprotein Glutathione Peroxidase 1 (GPX1) (AID 1845191); also: nearly all actives have a fitted effect of over 65% in size
# UniProt P07203, sequence (P07203 whole entry, looked up): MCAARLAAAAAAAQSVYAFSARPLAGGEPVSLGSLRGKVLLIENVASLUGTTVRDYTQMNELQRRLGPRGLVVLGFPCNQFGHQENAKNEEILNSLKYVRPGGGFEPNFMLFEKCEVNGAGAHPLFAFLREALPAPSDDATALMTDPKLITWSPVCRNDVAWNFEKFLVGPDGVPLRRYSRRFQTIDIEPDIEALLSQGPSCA
# Summary of the method: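 GR-coupled readout: NADPH consumption tracked by fluorescence, ex 340/em 450 nm, at t=0 and after 15 min at RT. Final mix 10 nM GPX1, 1 mM GSH, 0.5 mM CHP, 0.5 mM NADPH, 100 nM GR, 0.01% BSA, following 30 min enzyme–compound preincubation.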
# [16] = target: Furin (Homo sapiens) (UniProt P09958); assay: Furin counterscreen qHTS for Zika virus inhibitors (AID 1347149); also: potency is read from the fitted curve at half-maximal effect; nearly all actives have a fitted effect of over 70% in size
# UniProt P09958, sequence (P09958 whole entry, looked up): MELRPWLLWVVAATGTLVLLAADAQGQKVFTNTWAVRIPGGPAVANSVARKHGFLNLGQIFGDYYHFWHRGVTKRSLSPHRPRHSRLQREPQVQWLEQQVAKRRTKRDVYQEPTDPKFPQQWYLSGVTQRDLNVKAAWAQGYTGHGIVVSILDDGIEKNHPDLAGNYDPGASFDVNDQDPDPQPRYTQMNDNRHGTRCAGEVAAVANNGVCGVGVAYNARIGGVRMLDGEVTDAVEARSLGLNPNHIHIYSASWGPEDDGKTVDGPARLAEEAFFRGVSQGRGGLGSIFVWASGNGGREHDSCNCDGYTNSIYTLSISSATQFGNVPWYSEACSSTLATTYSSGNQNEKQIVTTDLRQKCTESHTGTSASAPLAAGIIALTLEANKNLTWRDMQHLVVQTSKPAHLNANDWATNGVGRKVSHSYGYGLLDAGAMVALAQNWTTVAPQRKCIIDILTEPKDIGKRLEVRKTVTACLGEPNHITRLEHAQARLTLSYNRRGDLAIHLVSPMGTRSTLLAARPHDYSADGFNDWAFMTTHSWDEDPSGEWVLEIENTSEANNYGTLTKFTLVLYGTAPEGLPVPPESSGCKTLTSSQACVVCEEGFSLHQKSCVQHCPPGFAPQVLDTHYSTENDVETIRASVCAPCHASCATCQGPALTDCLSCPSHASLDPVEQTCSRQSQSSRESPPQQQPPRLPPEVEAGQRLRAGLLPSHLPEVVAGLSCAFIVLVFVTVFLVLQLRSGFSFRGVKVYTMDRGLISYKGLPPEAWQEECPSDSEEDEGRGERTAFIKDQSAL
# Summary of the method: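 Counterscreen measures cleavage of 2 microM BOC-RVRR-AMC, below its ~15 microM Km, by 5 nM full-length human furin at pH 7.0 after a 15-min compound preincubation. Inhibition derives from the 15-min fluorescence increase at 37C.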
# [17] = tested on: Zika virus NS2B-NS3 protease (unlinked complex); assay: Confirmatory screen GU AMC qHTS for Zika virus inhibitors (AID 1347153);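 also: enzyme at 25 nM with substrate at 10 µM below its Km of 18.3 µM; potency is read from the fitted curve at half-maximal effect; nearly all actives have a fitted effect of over 70% in size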
# Summary of the method: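 Compounds were preincubated 15 min at room temperature with 25 nM noncovalent NS2B-NS3 protease at pH 8.0; AMC substrate added at 10 microM and 15-min fluorescence gain (340/450 nm) converted to percent inhibition, fitted 4-parameter.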
# [18] = ZIKV-mCherry secondary qHTS for Zika virus inhibitors (AID 1347158); also: potency is read from the fitted curve at half-maximal effect
# Summary of the method: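 Read-out is percent infection: mCherry-positive Vero cells (nuclear-proximal intensity >450 RFU, 3 SD above negative controls) counted by high-content imaging of Hoechst-stained, PFA-fixed wells after 48-72 h with ZIKV-mCherry at MOI 1 and compound.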
# [19] = tested on: Zika virus NS2B-NS3 protease (unlinked complex); assay: Primary screen GU Rhodamine qHTS for Zika virus inhibitors: Unlinked NS2B-NS3 protease assay (AID 1347159); conditions: Recombinant ZIKV NS2B-NS3 protease, Rhodamine110 substrate fluorescence; activity change, negative = inhibition: at 107 µM (top of the series); also: potency is read from the fitted curve at half-maximal effect; nearly all actives have a fitted effect of over 60% in size
# Summary of the method: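 Percent inhibition came from the 15-min rise in Rhodamine110 fluorescence (1.5 microM substrate, ~15% conversion), normalized to no-inhibitor and no-enzyme wells and Hill-fitted. Unlinked protease, 25 nM, pH 8.0 Tris buffer; compounds up to 114 microM, 15-min preincubation.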
# [20] = tested on: Zika virus NS2B-NS3 protease (linked construct); assay: Primary screen NINDS Rhodamine qHTS for Zika virus inhibitors (AID 1347160)
# Summary of the method: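 Rhodamine110-peptide cleavage (1.5 µM substrate) by 25 nM linked NS2B-NS3 enzyme at pH 8.0 (Tris, Tween 20), after 15 min RT preincubation with compounds; 15-min fluorescence change normalized to controls and Hill-fitted.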
# [21] = Tertiary RLuc qRT-PCR qHTS assay for Zika virus inhibitors (AID 1347169)
# Summary of the method: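 Vero, 1,000 cells/well, o/n 37 C; cpd pinned in DMSO; ZIKV-RLuc Cambodian, MOI 1-2, 48-72 h 37 C; live-cell RLuc substrate, lum read at 1-1.5 h.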
# [22] = target: Cytochrome P450 2D6 (Homo sapiens) (UniProt P10635); assay: Cytochrome P450 family 2 subfamily D member 6 (CYP2D6) small molecule antagonists: luciferase biochemical (cell-free) qHTS assay (AID 1645840; active = well fitted curve in the direction sought with a large enough effect in the repeat runs; inconclusive = weak or mixed curves; inactive = no such curve, though single readings can be large; an effect the other way counts as inactive or inconclusive)
# UniProt P10635, sequence (P10635 whole entry, looked up): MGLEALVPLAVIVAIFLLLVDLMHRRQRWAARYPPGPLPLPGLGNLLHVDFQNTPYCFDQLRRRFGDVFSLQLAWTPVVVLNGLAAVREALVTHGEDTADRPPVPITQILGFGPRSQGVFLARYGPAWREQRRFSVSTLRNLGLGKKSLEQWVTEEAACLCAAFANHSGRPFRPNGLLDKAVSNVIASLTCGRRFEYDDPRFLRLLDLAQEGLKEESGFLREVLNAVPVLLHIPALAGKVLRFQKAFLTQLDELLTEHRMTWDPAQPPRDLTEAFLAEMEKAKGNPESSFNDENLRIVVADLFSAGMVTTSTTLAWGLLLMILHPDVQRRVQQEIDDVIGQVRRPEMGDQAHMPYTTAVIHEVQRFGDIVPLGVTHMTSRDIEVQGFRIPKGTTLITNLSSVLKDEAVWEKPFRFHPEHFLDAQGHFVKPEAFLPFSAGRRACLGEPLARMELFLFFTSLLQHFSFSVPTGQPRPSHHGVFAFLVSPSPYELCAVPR
# Summary of the method: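 P450-Glo CYP2D6 system: proluciferin substrate converted by enzyme to luciferin, read by luminescence proportional to activity. Enzyme-substrate mix with compound 10 min at room temperature, then NADPH regeneration 1 h before detection reagent.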
# Tags tell the direction and shape of the fitted curve.
compound,measurement,setting,value
C=CC1C(OC2OC(CO)C(O)C(O)C2O)OC=C(C(=O)OC)C1CC1CC(=O)CC(CCc2ccc(O)cc2)O1 (centres undefined),Potency,[1],inactive
same,Potency,[2],inactive
same,Potency,[3],"inconclusive: 12.6 µM [activator, single point]"
same,Potency,[4],"inconclusive: 9.68 µM [inhibitor, single point]"
same,Potency,[5],inactive
same,Potency,[6],"inconclusive: 1.26 µM [rising, partial curve, poor fit]"
CC(O)C(O)/C=C/C=C/C(=O)O[C@@H]1C=C(C(=O)O)[C@](O)(CO)[C@@]2(C)CCCC(C)(C)[C@H]12 (some centres undefined),Potency,[7],inactive
same,outcome,[4],inactive
same,Potency,[8],inactive
OC[C@H]1O[C@@H](n2cnc3c2NC=NC[C@H]3O)C[C@@H]1O,Potency,[9],inactive
same,Potency,[2],"inconclusive: 7.52 µM [inhibitor, partial curve, poor fit]"
same,Potency,[4],"inconclusive: 0.58 µM [inhibitor, full curve, poor fit]"
same,Potency,[10],inactive
same,Potency,[11],"inconclusive: 0.631 µM [rising, partial curve, poor fit]"
O=C(O)c1ccc(CN2CCC(CN[C@@H]3C[C@H]3c3ccccc3)CC2)cc1,Potency,[12],inactive
same,Potency,[13],inactive
same,Potency,[4],"inconclusive: 0.651 µM [inhibitor, full curve]"
same,Potency,[10],"inconclusive: 15.8 µM [rising, partial curve, poor fit]"
same,Potency,[11],"inconclusive: 12.6 µM [rising, partial curve, poor fit]"
same,Potency,[14],inactive
C[C@@H]1O[C@@H](O[C@H]2[C@H](OC(=O)[C@]34CCC(C)(C)C[C@H]3C3=CCC5[C@@]6(C)C[C@H](O)[C@H](O[C@@H]7O[C@H](CO)[C@@H](O)[C@H](O)[C@H]7O)[C@@](C)(CO)C6[C@H](O)C[C@@]5(C)[C@]3(C)C[C@H]4O)OC[C@H](O)[C@@H]2O)[C@H](O)[C@H](O)[C@H]1O[C@@H]1OC[C@@H](O)[C@H](O[C@H]2OC[C@](O)(CO)[C@H]2O)[C@H]1O (some centres undefined),Potency,[13],"inconclusive: 2.18 µM [inhibitor, single point]"
same,Potency,[1],"inconclusive: 2.44 µM [inhibitor, single point]"
same,outcome,[15],inactive [at 9.52 µM]
same,Potency,[4],"inconclusive: 0.692 µM [inhibitor, single point]"
same,"activity change, negative = cytotoxicity",[10],inactive: 13.7% [at 6.55 µM]
same,"activity change, negative = cytotoxicity",[11],inactive: 19.1% [at 6.55 µM]
COc1cnc(-c2ccc(Cn3c(CC(C)(C)C(=O)O)c(SC(C)(C)C)c4cc(OC[C@@H]5Cc6ccccc6N5C(C)=O)ccc43)cc2)nc1,Potency,[7],"inconclusive: 20.2 µM [inhibitor, single point]"
same,Potency,[16],"inconclusive: 1.49 µM [inhibitor, full curve, poor fit]"
same,Potency,[17],"inconclusive: 12.2 µM [inhibitor, full curve]"
same,Potency,[18],active: 10 µM
same,Potency,[19],active: 3.98 µM
same,Potency,[20],active: 3.16 µM
same,Potency,[21],"inconclusive: 20.4 µM [inhibitor, single point]"
same,Potency,[22],inactive
same,Potency,[13],"inconclusive: 20.1 µM [inhibitor, single point]"
same,Potency,[1],"inconclusive: 12.7 µM [inhibitor, single point]"
same,outcome,[4],inactive
same,Potency,[8],inactive
same,Potency,[11],inactive
